Test results from PubChem BioAssay AID686978 (National Center for Advancing Translational Sciences (NCATS), 2013).
The whole screen tested about 420,000 compounds, of which about 64,000 (15%) were called active. The shares of active, inactive and inconclusive entries below differ from those in the screen. Calls follow the shape of the dose curve; as a rule, active = well fitted inhibition curve with a large enough effect; inconclusive = small, poorly fitted or top-dose-only effect; inactive = flat fitted curve, though single readings scatter. Potencies of inconclusive entries are left out as doubtful fits.

Experiment: qHTS for Inhibitors of human tyrosyl-DNA phosphodiesterase 1 (TDP1): qHTS in cells in absence of CPT; also: nearly all actives have a fitted effect of over 55% in size
Settings: DT40 Tdp1-/- hTDP1 cells, no CPT, ATP luminescence, 48 h; activity change, negative = growth inhibition: at 46.2 µM (top of the series) unless noted
How it was run: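 Chicken DT40 Tdp1-/- cells stably complemented with human TDP1 were seeded at 400 cells/well with DMSO in place of 20 nM camptothecin. After compound pinning, cells grew at least 48 hr at 37 °C; viability read by CellTiter-Glo luminescence.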
% is scaled to controls: 0 for no effect and ±100 for the full control effect; potency is read from the fitted curve at half-maximal effect; tags tell the direction and shape of the fitted curve.

| SMILES | Potency | activity change, negative = growth inhibition |
| --- | --- | --- |
| Cc1nc2c(sc3nc(N4CCOCC4)c4c(c32)CC(C)(C)OC4)c(-c2ccc(Cl)cc2)c1C(=O)O | inconclusive [inhibitor, single point] | – |
| COc1ccc(OC)c(CN(CCCN2CCOCC2)C(=O)Nc2ccccc2)c1 | – | inactive: 8.25% |
| Cc1ccc(NC(=O)c2cc(=O)[nH]c3ccc(S(=O)(=O)N4CCOCC4)cc23)nc1 | – | inactive: 1.41% |
| OCC[C@@H]1C[C@H](O)[C@@H](O)[C@@]2(OCCc3cc(Cl)ccc32)O1 | – | inactive: 2.89% |
| Cc1c(C(=O)NCCNc2ncc(C(F)(F)F)cc2Cl)cccc1[N+](=O)[O-] | inconclusive [inhibitor, partial curve, poor fit] | – |
| CC1(C(=O)NCCCNc2ncc(C(F)(F)F)cc2Cl)C=CCN1C(=O)c1ccccc1 (stereo not drawn) | inconclusive [inhibitor, single point] | – |
| CC(=O)N1CCc2cc(S(=O)(=O)NC(CC(C)C)C(=O)NCCc3ccccc3)ccc21 (stereo not drawn) | – | inactive: 5.5% |
| COc1cc(C(=O)Nc2cccc(C)n2)ccc1OCC(=O)N1CCOCC1 | – | inactive: 18.5% |
| Cc1ccc(NC(=O)COC(=O)CN2CCCCCC2=O)cc1C | – | inactive: 2.33% |
| COc1ccc(Cl)cc1NC(=O)CCN1C(=O)c2ccccc2Sc2ncccc21 | inconclusive [inhibitor, single point] | – |
| CCOC(=O)C1=CNS(=O)(=O)NC1c1ccc(Br)cc1F (stereo not drawn) | – | inactive: -15.9% |
| CCCn1c(C(CO)Nc2nc(-c3cccc(Br)c3)cs2)nc2ccccc21 (stereo not drawn) | inconclusive [inhibitor, single point] | – |
| O=C(CSc1nc2ccccc2c(=O)n1NC(=O)Cc1ccccc1)NCc1ccccc1Cl | inconclusive [inhibitor, single point] | – |
| CCOc1ccc(CNC(=O)CCCc2cn(C)c3ccccc23)cc1 | – | inactive: -17.9% |
| CC(Oc1ccc(Br)cc1)C(=O)NNC(=O)CCN1CCN(c2ccccc2)CC1 (stereo not drawn) | inconclusive [inhibitor, single point] | – |
| Cc1cc(NC(=O)CSc2nc3cc(Cl)ccc3c(=O)n2Cc2ccco2)no1 | inconclusive [inhibitor, partial curve] | – |
| CCOC(=O)c1sc(N2C(=O)C(O)=C(C(=O)c3ccc(C)o3)C2c2ccc(OC)c(OC)c2)nc1C (stereo not drawn) | inconclusive [inhibitor, single point] | – |
| CCOC(=O)N1CCN(C(=O)c2ccccc2-c2ccccc2)CC1 | active: 3.26 µM | – |
| CCCCCCN1C=CC(=C2C(=O)c3ccccc3C2=O)C=C1 | inconclusive [inhibitor, partial curve] | – |
| COC(=O)CC1C(=O)NCCN1C(=O)CN1Cc2ccccc2OC(c2ccccc2)C1 (stereo not drawn) | – | inactive: -14.3% |
| CCCCc1ccc(NC(=O)Cn2c(=O)c(N3CCCCC3)c(N)n(C)c2=O)cc1 | inconclusive [inhibitor, single point] | – |
| COC(=O)c1ccc(Cn2cnc3c(Cl)ncnc32)cc1 | inconclusive [inhibitor, single point] | – |
| CCCc1cc(C(=O)NCCc2ccc(OC)c(OC)c2)no1 | inconclusive [inhibitor, single point] | – |
| CCOc1ccc(/C=N/Nc2ccccn2)cc1OC | inconclusive [inhibitor, single point] | – |
| COc1ccc(OC)c(NC(=O)C2(C)CCN2C(=O)CC2CC2)c1 (stereo not drawn) | inconclusive [inhibitor, single point] | – |

| SMILES | Potency | activity change, negative = growth inhibition |
| --- | --- | --- |
| Cn1c(=O)c2[nH]c(CCCCc3nc4ccccc4[nH]3)nc2n(C)c1=O | – | inactive: -10.5% |
| COc1ccc([C@H]2CC(=O)C=C(c3ccnc4ccc(Cl)cc34)C2)cc1 | active: 9.2 µM | – |
| O=C(Cn1cnc2cc([N+](=O)[O-])ccc2c1=O)NCc1ccccc1 | – | inactive: -21.7% |
| CCOc1ccc(OCC)c(NC(=O)CSCCc2ccccn2)c1 | inconclusive [inhibitor, single point] | – |
| O=C(CNc1ccc(Oc2ccccc2)cc1)N1CCOCC1 | inconclusive [inhibitor, single point] | – |
| COCOCCn1cc(CN2CCS(=O)(=O)N(Cc3ccc(-c4ccncc4)cc3)C(C(C)C)C2=O)nn1 (stereo not drawn) | – | inactive: -98.4% |
| C/C(=N\OCc1nc2ccccc2c(=O)n1/N=C/c1cc([N+](=O)[O-])ccc1O)c1ccccc1 | inconclusive [inhibitor, partial curve, poor fit] | – |
| COc1ccc(OC)c(Nc2ncc3c(n2)CCN(Cc2cc(OC)c(OC)c(OC)c2)C3)c1 | active: 7.31 µM | – |
| CC(C)(C)c1ccc(-c2nc3n(c(=O)c2C#N)CCS3)cc1 | inconclusive [inhibitor, single point] | – |
| CS(=O)(=O)N1CCCCC1c1cc(C(=O)NCc2ccc(Cl)c(Cl)c2)no1 (stereo not drawn) | inconclusive [inhibitor, single point] | – |
| COc1ccc(C2CC(c3cccc(OC)c3)=NN2c2ccc(S(N)(=O)=O)cc2)cc1 (stereo not drawn) | – | inactive: -85.8% |
| COCCNC(=O)C1CCC(CNS(=O)(=O)c2c(C)cc(C)cc2C)CC1 (stereo not drawn) | – | inactive: -24.7% |
| Cc1cc(C)c2[nH]c(=O)c(CN(Cc3cccs3)C(=S)NCC3CCCO3)cc2c1 (stereo not drawn) | active: 20.6 µM | – |
| COC(=O)C(Cc1ccc(O)cc1)NC(=O)NC12CC3CC(CC(C3)C1)C2 (stereo not drawn) | – | inconclusive: -17.1% [inhibitor] |
| COc1ccc(/C=N/Nc2ccc([N+](=O)[O-])cc2S(=O)(=O)N2CCN(C)CC2)cc1 | – | inactive: 13% |
| CSCCC(NS(=O)(=O)c1cccs1)C(=O)Nc1ccc(C)c(Cl)c1 (stereo not drawn) | – | inactive: -29.4% |
| CCc1ccccc1Nc1ncnc2c1cnn2-c1ccc(Cl)cc1 | inconclusive [inhibitor, single point] | – |
| CC(=O)N1c2ccc(S(=O)(=O)NCCC(=O)Nc3cccc(Cl)c3)cc2CC1C (stereo not drawn) | – | inactive: 20.6% |
| CC(=O)Nc1ccc(Nc2nc(C)nc3c2nnn3Cc2ccccc2Cl)cc1 | active: 16.4 µM | – |
| Cc1ccc2cccc(OCc3ccc(Br)cc3)c2n1 | inconclusive [inhibitor, single point] | – |
| Cc1ccc(Nc2nc(C)cc(C)c2C(N)=O)c(C)c1 | active: 6.51 µM | – |
| Cc1cccc(N2CCN(C(=O)CN3C(=O)NC4(CCCCCC4)C3=O)CC2)c1C | active: 20.6 µM | – |
| Cc1nc(C)c(-c2csc(NCCc3ccccc3)n2)s1 | active: 13 µM | – |
| O=C(Cc1ccc(F)cc1)Nc1ccc(Cl)cn1 | – | inactive: -2.47% |
| CCOC(=O)N1CCN(C(=O)CNC(=O)c2ccccc2F)CC1 | – | inactive: -11% |

| SMILES | Potency | activity change, negative = growth inhibition |
| --- | --- | --- |
| CC(C)OC(=O)c1cccc(C(=O)Nc2cccc(NC(=O)c3cccc(C(=O)OC(C)C)n3)n2)n1 | active: 2.06 µM | – |
| COC(=O)c1ccccc1NS(=O)(=O)c1c(C)noc1C | – | inactive: 22.8% |
| COc1ccc(C(=O)COC(=O)C(CC(C)C)N2C(=O)c3ccccc3C2=O)cc1 (stereo not drawn) | inconclusive [inhibitor, single point] | – |
| CCC(C(=O)Nc1ccccc1F)n1nc(C)c2c(C)n(-c3ccccc3)nc2c1=O (stereo not drawn) | inconclusive [inhibitor, single point] | – |
| Cc1ccccc1-c1csc(C(C)(O)c2cccnc2)n1 (stereo not drawn) | inconclusive [inhibitor, single point] | – |
| CCN(CC(=O)NCc1cccs1)C(=O)c1ccc(C)o1 | – | inactive: -8.27% |
| COc1ccc(OC)c(CNC(=O)C2CCCN(S(=O)(=O)N3CC(C)CC(C)C3)C2)c1 (stereo not drawn) | inconclusive [inhibitor, single point] | – |
| COc1ccc(Cl)cc1NC(=O)c1ncn(-c2ccccc2)n1 | inconclusive [inhibitor, single point] | – |
| COC(=O)C1=C(C)NC(C)=C(C(=O)OC)C1C(=O)OCC(=O)N1c2ccccc2CC1C (stereo not drawn) | inactive | – |
| CCCCN1C(=O)C(CC(=O)NC(c2ccccc2)c2ccccc2)CC(C(=O)N(CC)CC)=C1C (stereo not drawn) | active: 20.6 µM | – |
| CC(C)c1ccc(OCC(O)CN2CCN(c3ccccn3)CC2)cc1 (stereo not drawn) | active: 10.3 µM | – |
| CCn1c(=N)n(CC(=O)C(C)(C)C)c2ccccc21 | inconclusive [inhibitor, partial curve, poor fit] | – |
| COc1ccccc1-c1coc2c(CN3C(C)CCCC3C)c(O)ccc2c1=O (stereo not drawn) | inconclusive [inhibitor, single point] | – |
| CCO[C@H]1OC(C(=O)NCc2nc3ccccc3[nH]2)=C[C@@H](C2CCCCC2)[C@@H]1CCCO | active: 14.6 µM | – |
| C#CCN1C(=O)C(O)(CC(=O)c2ccc(OC)c(OC)c2)c2ccccc21 (stereo not drawn) | inconclusive [inhibitor, single point] | – |
| COc1ccc(C(=O)NC(C(=O)NCC(=O)Nc2c(C)cccc2C)C(C)C)cc1 (stereo not drawn) | – | inactive: 4.35% |
| COc1cc2c(cc1O)C(Cc1ccc(O)cc1)[N+](C)([O-])CC2 (stereo not drawn) | – | inactive: -3.95% |
| CCc1ccc(NC(=O)Cn2c(=O)n(-c3ccccc3)c(=O)c3ccc(C(=O)NCc4ccc5c(c4)OCO5)cc32)cc1 | inconclusive [inhibitor, single point] | – |
| CS(=O)(=O)c1ccc(NC(=O)CCN2C(=O)C3CCCCC3C2=O)cc1 (stereo not drawn) | – | inactive: -11.5% |
| CCc1nc2c(OCCc3cccc(OC)c3)cccn2c1N(C)C(=O)c1ccc(OC)cc1 | inconclusive [inhibitor, single point] | – |
| NC(=O)C1CCN(C2CC(=O)N(c3ccc(F)c(Cl)c3)C2=O)CC1 (stereo not drawn) | inconclusive [inhibitor, single point] | – |
| O=c1[nH]c2ccccc2cc1CN(CC1CCCO1)S(=O)(=O)c1ccc(Cl)cc1 (stereo not drawn) | inconclusive [inhibitor, single point] | – |
| CCCCCCCCCC[n+]1ccc(/C=C/c2c(C)[nH]c3ccccc23)c2ccccc21 | active: 1 µM | – |
